Read-outs that look alike come from different tables or passages of the source.
Tests used:
[1] = test system: cell viability in cell proliferation; experiment: CCK-8 cytotoxicity assay; conditions: highest tested concentration 1 mM, data not shown
hSERT [2] = biological target: T1, hSERT (Homo sapiens, UniProt P31645); experiment: Confocal fluorescence image analysis of APP+ intracellular accumulation; conditions: read-out: Inhibition of APP+ accumulation
hDAT = hDAT (Homo sapiens, UniProt Q01959); experiment: ASP+ uptake by cells expressing hDAT
hSERT [3] = experiment: Total and cell surface hSERT-Flag expression (biotinylation, Western blot); assay type: cell-based, human; conditions: 2 × Ki concentration (SAG 10 μM, SBG 16 μM), room temperature, 10 min
Experimental: To see if SAG or SBG changes hSERT expression, we measured total and cell surface expression levels of hSERT with or without drug treatments. Total cell lysates were used for measuring total hSERT expression, while cell surface expression of hSERT was determined by using cell surface biotinylation of plasma membrane proteins.
After being labeled with NHS-SS-biotin at 4 °C for 30 min, cells were lysed with lysis buffer. Small portion of lysates analyzed for total hSERT-Flag expression. Cell-surface labelled proteins in the residual solution were captured with streptavidin–agarose and subjected to Western blotting analysis for hSERT-Flag cell surface expression, as described in Section 4. (A) Representative blot of total hSERT-Flag expression. (B) Representative blot of hSERT-Flag cell surface expression. (C) Quantitative analysis for effects of SAG and SBG on hSERT-Flag expression. Graph is a combination of three experiments. All error bars represent SEM.
Cell surface expression of hSERT-Flag was determined using the membrane-impermeant biotinylation reagent sulfo-NHS-SS-biotin as described previously. Briefly, HeLa cells expressing hSERT-Flag were treated twice with NHS-SS-biotin for 20 min on ice. After labeling, the cells were rinsed with 100 mM glycine in phosphate-buffered saline (137 mM NaCl, 2.7 mM KCl, 4.3 mM Na2HPO4, and 1.4 mM KH2PO4, pH 7.3) for 20 min to quench excess biotinylation reagent. Cells were then lysed with lysis buffer (50 mM Tris-HCl, pH 7.5, 150 mM NaCl, 5 mM EDTA, 1% Triton X-100, 0.1% SDS, 0.2 mM phenylmethylsulfonyl fluoride, and 0.5% Sigma protease inhibitor mixture), and biotinylated proteins were captured using streptavidin-agarose in 3 h incubation at 4 °C with gentle agitation. Biotinylated proteins were eluted with 100 μL of SDS-PAGE sample buffer and applied to a 10% SDS-polyacrylamide gel and visualized by Western blotting. hSERT was detected using anti-FLAG M2 monoclonal antibody (1:1000) against the FLAG epitope tag at the C-terminus of hSERT. A horseradish peroxidase-conjugated antimouse IgG (1:10,000) was used to visualize the signal by Super Signal West Femto. The amount of surface expression was determined by quantitative luminescence imaging using a UVP Biochemi imaging system.

[4] = test system: acute restraint-stressed rat models; parameters: method as in PMID 28800105; conditions: 3.6 mg/kg, 7 days, p.o.; cited from earlier work
hNET = hNET (Homo sapiens, UniProt P23975); experiment: ASP+ uptake by cells expressing hNET
hSERT [5] = biological target: T1, hSERT; experiment: APP+ uptake by cells expressing hSERT (microplate reader); conditions: for Mode of SERT inhibition: decreased Vmax, little change in Km for APP+; for Fold more potency in inhibiting SERT than DAT and NET: from Ki values of Table 1; for Vmax of APP+ transport: control 23.71 ± 1.98; for Effect of preincubation with cells on the parameters of inhibition: preincubation 5 min, data not shown
SERT mutant Y107C = SERT mutant Y107C (Homo sapiens, UniProt P31645, C109A/Y107C); experiment: Cysteine accessibility of SERT mutant Y107C to MTSET (residual APP+ uptake)

UniProt P23975, sequence (P23975 whole entry): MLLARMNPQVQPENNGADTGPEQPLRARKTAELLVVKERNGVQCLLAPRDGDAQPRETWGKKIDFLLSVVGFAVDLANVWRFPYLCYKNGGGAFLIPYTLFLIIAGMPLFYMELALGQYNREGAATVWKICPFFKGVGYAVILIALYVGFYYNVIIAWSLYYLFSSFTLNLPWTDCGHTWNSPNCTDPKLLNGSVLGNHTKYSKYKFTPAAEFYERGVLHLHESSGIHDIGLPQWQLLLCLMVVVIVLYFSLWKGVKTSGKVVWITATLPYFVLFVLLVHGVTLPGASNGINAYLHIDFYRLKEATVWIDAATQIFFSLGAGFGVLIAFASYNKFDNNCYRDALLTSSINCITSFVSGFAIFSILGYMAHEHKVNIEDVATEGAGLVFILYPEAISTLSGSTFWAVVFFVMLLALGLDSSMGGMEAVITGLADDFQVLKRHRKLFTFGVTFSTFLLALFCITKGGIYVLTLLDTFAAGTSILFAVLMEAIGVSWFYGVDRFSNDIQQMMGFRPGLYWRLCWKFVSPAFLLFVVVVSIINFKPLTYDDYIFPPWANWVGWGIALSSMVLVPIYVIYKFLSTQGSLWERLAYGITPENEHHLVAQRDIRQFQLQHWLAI
UniProt Q01959, sequence (Q01959 whole entry): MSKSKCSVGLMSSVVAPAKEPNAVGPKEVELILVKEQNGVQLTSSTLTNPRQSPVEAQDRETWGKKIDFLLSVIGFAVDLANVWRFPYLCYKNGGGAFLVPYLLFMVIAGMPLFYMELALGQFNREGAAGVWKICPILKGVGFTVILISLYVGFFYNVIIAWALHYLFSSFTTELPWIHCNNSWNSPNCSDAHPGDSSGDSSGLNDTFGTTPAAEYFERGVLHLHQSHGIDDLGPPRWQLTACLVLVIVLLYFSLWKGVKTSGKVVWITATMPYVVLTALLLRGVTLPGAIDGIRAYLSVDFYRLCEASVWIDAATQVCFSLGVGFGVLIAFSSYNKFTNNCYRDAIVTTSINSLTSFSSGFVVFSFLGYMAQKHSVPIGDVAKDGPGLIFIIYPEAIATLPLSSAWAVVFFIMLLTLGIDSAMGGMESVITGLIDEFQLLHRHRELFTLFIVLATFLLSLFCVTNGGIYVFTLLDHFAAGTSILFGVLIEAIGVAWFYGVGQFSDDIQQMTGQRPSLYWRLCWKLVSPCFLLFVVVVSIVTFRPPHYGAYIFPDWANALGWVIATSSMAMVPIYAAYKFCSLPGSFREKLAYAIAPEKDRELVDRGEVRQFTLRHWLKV

inhibition at 5 µM (hSERT [2]) [%]	Vmax of APP+ transport (hSERT [5]; in the presence of 5 μM SAG) [pmol/min/mg]	SMILES	Effect on cell viability in cell proliferation [1]	Ki (hDAT) [µM]	Cell surface expression level of hSERT (hSERT [3])	Total expression level of hSERT (hSERT [3])	Antidepressant and anxiolytic responses [4]	Ki (hNET) [µM]	Ki (hSERT [5]) [µM]	Mode of SERT inhibition (hSERT [5])	Fold more potency in inhibiting SERT than DAT and NET (hSERT [5])	Effect of preincubation with cells on the parameters of inhibition (hSERT [5])	Effect on reactivity of Y107C with MTSET (SERT mutant Y107C; 0.01 mM MTSET, 15 min, 10 μM fluoxetine, 10 μM SAG, 16 μM SBG, compared with MTSET alone)	inhibition at 8 µM (hSERT [2]) [%]	Vmax of APP+ transport (hSERT [5]; in the presence of 8 μM inhibitor) [pmol/min/mg]	Effect on reactivity of Y107C with MTSET (SERT mutant Y107C)
40 to 50	11.26 ± 0.96	COc1cc(C2OCC3C(c4cc(OC)c(OC5OC(CO)C(O)C(O)C5OC5OCC(O)(CO)C5O)c(OC)c4)OCC23)cc(OC)c1O (single isomer, unassigned; (-)) [SAG, (-)-syringaresinol-4-O-β-D-apiofuranosyl-(1→2)-β-D-glucopyranoside]	little effect	20.4 ± 2.13	did not alter	did not alter	produced the antidepressant and anxiolytic responses	17.4 ± 1.94	5.25 ± 0.3	noncompetitively inhibited SERT	3–4 fold	no effect	exhibited potency to protect Y107C from MTSET inactivation	–	–	–
–	–	COc1cc([C@@H]2OC[C@@H]3[C@H]2CO[C@H]3c2cc(OC)c(O[C@H]3O[C@@H](CO)[C@H](O)[C@@H](O)[C@@H]3O)c(OC)c2)cc(OC)c1O[C@H]1O[C@@H](CO)[C@H](O)[C@@H](O)[C@@H]1O [SBG, (-)-syringaresinol-4,4′-bis-O-β-D-glucopyranoside]	–	32.3 ± 2.85	did not alter	did not alter	–	30 ± 3.61	8.51 ± 0.5	noncompetitively inhibited SERT	3–4 fold	no effect	–	40 to 50	12.08 ± 1.15	exhibited potency to protect Y107C from MTSET inactivation

— article PMC8954383 (Pharmaceuticals, 2022)
